# According to publication PMC12136788:
# This is one part of the list.
# T1: UNK ZnF1-6 (called full-length) (human, UniProt Q9C0B0 30-357)
# T1 sequence: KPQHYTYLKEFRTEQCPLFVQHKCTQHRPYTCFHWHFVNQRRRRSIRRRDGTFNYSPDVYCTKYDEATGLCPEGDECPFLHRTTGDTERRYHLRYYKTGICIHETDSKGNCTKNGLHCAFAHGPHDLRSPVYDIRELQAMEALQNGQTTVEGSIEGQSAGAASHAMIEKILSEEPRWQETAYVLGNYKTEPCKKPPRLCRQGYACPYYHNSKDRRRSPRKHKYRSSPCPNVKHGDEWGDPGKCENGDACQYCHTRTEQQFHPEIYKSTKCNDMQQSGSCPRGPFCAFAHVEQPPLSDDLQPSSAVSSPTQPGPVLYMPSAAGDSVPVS
# B1: chr2:112646914:112647020:+|CDS|ENSG00000144136|unk|FALSE|unique (ssRNA)
# RNA: GGGAGUUCUACAGUCCGACGAUCGCUCAUCCUGGGCUUCAUUAUUGCAUUUGUCUUGGCAUUCUCCGUGGGAGCCAAUGAUGUAGCAAAUUCUUUUGGUACAGCUGUGGGCUCAGGUGUAGUGACCCUGAAGCAAGCCUGCAUCAACAGAGGAUUGAGCAUCA
# B2: chr11:92354873:92354974:+|CDS|ENSG00000165323|unk|FALSE|bound_elsewhere (ssRNA)
# RNA: GGGAGUUCUACAGUCCGACGAUCGUCACUCUUAAAGUUUUUUUAGAUGAUGUCAAUGACUGCUCCCCAGCUUUCAUUCCCAGUAGCUAUAGUGUGAAGGUUCUUGAAGAUCUCCCUGUUGGCACUGUCAUUGCUUGGCUUGAGCAACAGAGGAUUGAGCAUCA
# B3: chr3:15255350:15255451:-|3pUTR|ENSG00000131370|msi1|total|mutant (ssRNA)
# RNA: GGGAGUUCUACAGUCCGACGAUCUGGGGUGGGAAAGGUGAAUGCCAGUGGGGAUGCGGGGGGAUGAGGGCCGGAGGGACUUACCGAAGGGGAUUUGUGGCUGUGGGGGAGAAGGUUCUACAGCAUAAGCCUUAUCCUGCCAGCCAACAGAGGAUUGAGCAUCA
# B4: ENSG00000198589:be:win_4401|CDS|ENSG00000198589|bound_else_gene|NA|bound_elsewhere_windowed (ssRNA)
# RNA: GGGAGUUCUACAGUCCGACGAUCGGGAGAUAAAGCCUUGAAACCAAUGCAUAGCCUUAUUCCUUUAGGGAAAUCUGCAGCGAAGAGCCCAGUGGACAUUGUGACUGGCGGUAUAUCUCCAGUAAGAGAUCUUGACAGGCUUCUCAACAGAGGAUUGAGCAUCA
# B5: ENSG00000136451:be:win_4301|3pUTR|ENSG00000136451|bound_else_gene|NA|bound_elsewhere_windowed (ssRNA)
# RNA: GGGAGUUCUACAGUCCGACGAUCCUCUAGGGCUCGCUGCUUGGCCUGCGUUUGCUUUUUAUUGUGUAUCCGUUCCCCUCCUACGGUGUGCUCCUGAAUGAAGGUUUCUAUGUAAGCAGAUGAUGAUUUUACCUGUCAAUACCACAACAGAGGAUUGAGCAUCA
# B6: chr22:36488912:36489013:-|3pUTR|ENSG00000100350|msi1|FALSE|unique (ssRNA)
# RNA: GGGAGUUCUACAGUCCGACGAUCCUAGUCUCUUCUUCAUUGCCCUUCCUCACCAGCAAUCUGCACUUUCCCAUCAGGCGUCUUAGUCUCAUUUGUAAGUGCAUAAGAUAAUCACAGUGAUUUUUCAAAGCCCAGGAUCAUAAGCAACAGAGGAUUGAGCAUCA
# B7: chr22:20586770:20586871:+|3pUTR|ENSG00000099917|unk|FALSE|unique (ssRNA)
# RNA: GGGAGUUCUACAGUCCGACGAUCACACGCCUCCUGUCAGACACUUCUAGGUGUUGGCUUCCUUAGAGAGCCUGGGGUUAGGUUAGCUUUCCUGCUUUUAUCUUCUGCCUUGGGGACCUGCCAAACGAAAUCCCACACCUGUACCAACAGAGGAUUGAGCAUCA
# B8: chr1:36180537:36180567:+|3pUTR|ENSG00000116871|msi1_unk|total|mutant (ssRNA)
# RNA: GGGAGUUCUACAGUCCGACGAUCCAUACACACAUAUACACUCACAGCCUCUCUGGCCUCUUCCCUUGGGGAGGGGCCACCUGCCGUAUUUGCCUUGAUUUGGUGGGGUACAGUGGAUGUGAAUACUGUAAACCGCUUGUGCUCCAACAGAGGAUUGAGCAUCA
# B9: chr13:46334680:46343497:-|three_prime_utr|ENSG00000102445|control|control|control (ssRNA)
# RNA: GGGAGUUCUACAGUCCGACGAUCGACUGUUCAACAUGCCUUAUGAUAACACCGAUUUGUGUCUAUUAUUGGUGACAUUGUUUUAGAUAUUGGGUAUUGUAUAUUAAGGAAAAAGAUGGUCUAUAUUCUCUUUAUUGCAUAUACCAACAGAGGAUUGAGCAUCA
# B10: chr1:55154109:55154210:-|CDS|ENSG00000162402|msi1|total|mutant (ssRNA)
# RNA: GGGAGUUCUACAGUCCGACGAUCCCUCCGUGAUGCAUAUGCAGUGAAAGAAGCAAUCAAGAGGAGCUACAUCAUCAAGUGCACCGAAGAUAUUAAGAGGGUUGGUUUCAGCUUUUAUCUGAUUUUGUUGUCCGAGCAACAGUACAACAGAGGAUUGAGCAUCA
# B11: chrX:120627021:120627135:-|CDS|ENSG00000171155|unk|total|mutant (ssRNA)
# RNA: GGGAGUUCUACAGUCCGACGAUCUUGAAGGGUGUGAUGCUUGGAAGCAUUUUCUGUGCUUUGAUCACUAUGCCCGGACACAUCCGGAUUGGUCAUGGAAACCGAAUGCACCACCAUGAGCAUCAUCACCUACAAGCUCCUAACCAACAGAGGAUUGAGCAUCA
# B12: chr14:100884374:100884478:-|CDS|ENSG00000254656|unk|FALSE|unique (ssRNA)
# RNA: GGGAGUUCUACAGUCCGACGAUCGAGGAGUCAUGCAACGGUUCACACCAGGCAAGGGGGGAUCCACUCAGUGGAGCAUCUGAUAGGAUGAAAGAAGCAUCAGUCAACCCAUCGGGAGCCCGAGAAGAACAAGAGGCUCACACUCAACAGAGGAUUGAGCAUCA
# B13: chr18:9257137:9257239:+|CDS|ENSG00000101745|unk|total|mutant (ssRNA)
# RNA: GGGAGUUCUACAGUCCGACGAUCUCUCCGGUCAUCUUCUGCCGAAGAUGUUAAACUAAUUAUAAGCGAGGGGAGACCUACCACCGAAGUUCGAAGAUGCCGCAUGCCUUCUGUCAUUUGUGAACAUACCAAACAAUUCCAAACCAACAGAGGAUUGAGCAUCA
# B14: chr16:67175568:67175669:+|3pUTR|ENSG00000140939|msi1|FALSE|unique (ssRNA)
# RNA: GGGAGUUCUACAGUCCGACGAUCUUAGAGCUCACAGCCUUGGGAAGUGAGACUAGAAGAGGGGAGCAGAAAGGGACCUUGAGUAGACAAAGGCCACACACAUCAUUGUCAUUACUGUUUUAAUUGUCUGGCUUCUCUCUGGACCAACAGAGGAUUGAGCAUCA
# B15: chrX:154027874:154027956:-|3pUTR|ENSG00000169057|msi1_unk|total|mutant (ssRNA)
# RNA: GGGAGUUCUACAGUCCGACGAUCUGGUCCGAAGUGAGGGAGUUUGCCCCGUUCUGUUUGCCGAGUCUCACCGUUGGACUUUCCCGCAUAUAUGUGUCCAUUUCCUUAUGCUGUAAAAGCAAGUCCUGCAACCAAACUCCCAUCCAACAGAGGAUUGAGCAUCA
# B16: chr1:153626309:153626462:-|CDS|ENSG00000189171|unk|FALSE|unique (ssRNA)
# RNA: GGGAGUUCUACAGUCCGACGAUCUCCAUUGAGACCGUGGUCACCACCUUCUUCACCUUUGCAAGGCAGGAGGGCCGGAAGGAUAGCCUCAGCGUCAACGAGUUCAAAGAGCUGGUUACCCAGCAGUUGCCCCAUCUGCUCAAGCAACAGAGGAUUGAGCAUCA
# B17: chr14:22589090:22589186:-|5pUTR_CDS|ENSG00000129562|msi1_unk|FALSE|overlapping (ssRNA)
# RNA: GGGAGUUCUACAGUCCGACGAUCUCCUCCAAGAGUUUGGGGCGCGGACCGGAGUACCUUGCGUGCAGUUAUGUCGGCGUCGGUAGUGUCUGUCAUUUCGCGGUUCUUAGAAGAGUACUUGAGCUCCACUCCGCAGCGUCUGAACAACAGAGGAUUGAGCAUCA
# B18: chr2:135782819:135782876:+|CDS|ENSG00000144224|msi1_unk|total|mutant (ssRNA)
# RNA: GGGAGUUCUACAGUCCGACGAUCGUGAGAAAAAGAGUGCUGGAAAAACGUGGAGACGACUUUAAAAAGGAGGGGAAAAUUUACCGAUUAAGGACUCAAGAUGAUGGUGAAGAUGAAAACAACACUUGGAAUGGAAAUUCCACUCAACAGAGGAUUGAGCAUCA
# B19: chr13:36848462:36848578:-|3pUTR|ENSG00000120693|unk|total|mutant (ssRNA)
# RNA: GGGAGUUCUACAGUCCGACGAUCAAAUACACCGAAUGUAUACUGUUCUUAUUUUUUUUAAUCACCGUUUGUUUUGUGCUUUCCCGUUAACCUGAUGCCAGUACAGUGCAAUUGGAAAAGCAGGACUUUGGUGCCUGUGCUAUACAACAGAGGAUUGAGCAUCA
# B20: chr10:22535117:22535218:-|3pUTR|ENSG00000150867|unk|FALSE|unique (ssRNA)
# RNA: GGGAGUUCUACAGUCCGACGAUCAAGGUACACAUACAUUAUUUGAGUAACUGUUUCCUUGGGGGCCAAUCUGUGUAUGCUUUUAGAAGUUUACAGAAUGCUUUUAUUUUUGUCUAUAACAAACAGUCUGUCAUUUAUUUCUGUCAACAGAGGAUUGAGCAUCA
# B21: chr13:110149562:110149758:-|3pUTR|ENSG00000187498|msi1|total|mutant (ssRNA)
# RNA: GGGAGUUCUACAGUCCGACGAUCUAAAUAUAUAUAUAUAUCCGUAAUUUAUACCGAUGUCAGCAAUCCGGCAGAUCAAGGUUCCGUUUAACUUCCACUGUUAAAAUAAAGCUUACACCGUUUUCUUCCUUUGAAAGACUGUGCCAACAGAGGAUUGAGCAUCA
# B22: ENSG00000135862:stop:overlap|stop_codon|ENSG00000135862|stop_codon|NA|stop_codon (ssRNA)
# RNA: GGGAGUUCUACAGUCCGACGAUCAGGACAUCAGGAAGACCUUACCAUCUGGCUGCUUCAACACCCCGUCCAUUGAAAAGCCCUAGUGUCUUUAGGGCUGGAAGGCAGCAUCCCUCUGACAGGGGGGCAGUUGUGAGGCCACAGCAACAGAGGAUUGAGCAUCA
# Target: T1, UNK ZnF1-6 (called full-length)
# Assay: nsRBNS (natural sequence RNA bind-n-seq); RBNS binding buffer (assumed for nsRBNS): 25 mM Tris pH 7.5, 150 mM KCl, 3 mM MgCl2, 0.01% Triton X-100, 500 ug/ml BSA, 20 U/ml SUPERase-In, 4 C; UNK is unkempt and MSI1 is Musashi-1; names of the RNAs are library labels; protein concentration not given here; high values mean tight binding
row,Binder,binding signal
1,B1,0.776 enrichment R
2,B2,0.639 enrichment R
3,B3,1.36 enrichment R
4,B4,0.697 enrichment R
5,B5,0.492 enrichment R
6,B6,0.433 enrichment R
7,B7,1.41 enrichment R
8,B8,0.493 enrichment R
9,B9,0.812 enrichment R
10,B10,0.508 enrichment R
11,B11,0.322 enrichment R
12,B12,1.13 enrichment R
13,B13,0.458 enrichment R
14,B14,0.956 enrichment R
15,B15,0.921 enrichment R
16,B16,0.514 enrichment R
17,B17,0.741 enrichment R
18,B18,0.715 enrichment R
19,B19,1.67 enrichment R
20,B20,0.472 enrichment R
21,B21,1.36 enrichment R
22,B22,0.567 enrichment R
